From PubChem BioAssay AID504333 (National Center for Advancing Translational Sciences (NCATS), 2011)
In all, about 360,000 compounds went through this assay and about 16,000 (4.4%) were called active. Inconclusive results, whose numbers are uncertain, are shown with a selection of clear calls. Calls follow the shape of the dose curve; as a rule, active = well fitted inhibition curve with a large enough effect; inconclusive = small, poorly fitted or top-dose-only effect; inactive = no such curve, though single readings can be large or run the other way. Potencies of inconclusive entries are doubtful fits and often do not repeat.

Target: Bromodomain adjacent to zinc finger domain protein 2B (Homo sapiens) (UniProt Q9UIF8)
Sequence of UniProt Q9UIF8 (Q9UIF8 whole entry, looked up, the tested form may be a part): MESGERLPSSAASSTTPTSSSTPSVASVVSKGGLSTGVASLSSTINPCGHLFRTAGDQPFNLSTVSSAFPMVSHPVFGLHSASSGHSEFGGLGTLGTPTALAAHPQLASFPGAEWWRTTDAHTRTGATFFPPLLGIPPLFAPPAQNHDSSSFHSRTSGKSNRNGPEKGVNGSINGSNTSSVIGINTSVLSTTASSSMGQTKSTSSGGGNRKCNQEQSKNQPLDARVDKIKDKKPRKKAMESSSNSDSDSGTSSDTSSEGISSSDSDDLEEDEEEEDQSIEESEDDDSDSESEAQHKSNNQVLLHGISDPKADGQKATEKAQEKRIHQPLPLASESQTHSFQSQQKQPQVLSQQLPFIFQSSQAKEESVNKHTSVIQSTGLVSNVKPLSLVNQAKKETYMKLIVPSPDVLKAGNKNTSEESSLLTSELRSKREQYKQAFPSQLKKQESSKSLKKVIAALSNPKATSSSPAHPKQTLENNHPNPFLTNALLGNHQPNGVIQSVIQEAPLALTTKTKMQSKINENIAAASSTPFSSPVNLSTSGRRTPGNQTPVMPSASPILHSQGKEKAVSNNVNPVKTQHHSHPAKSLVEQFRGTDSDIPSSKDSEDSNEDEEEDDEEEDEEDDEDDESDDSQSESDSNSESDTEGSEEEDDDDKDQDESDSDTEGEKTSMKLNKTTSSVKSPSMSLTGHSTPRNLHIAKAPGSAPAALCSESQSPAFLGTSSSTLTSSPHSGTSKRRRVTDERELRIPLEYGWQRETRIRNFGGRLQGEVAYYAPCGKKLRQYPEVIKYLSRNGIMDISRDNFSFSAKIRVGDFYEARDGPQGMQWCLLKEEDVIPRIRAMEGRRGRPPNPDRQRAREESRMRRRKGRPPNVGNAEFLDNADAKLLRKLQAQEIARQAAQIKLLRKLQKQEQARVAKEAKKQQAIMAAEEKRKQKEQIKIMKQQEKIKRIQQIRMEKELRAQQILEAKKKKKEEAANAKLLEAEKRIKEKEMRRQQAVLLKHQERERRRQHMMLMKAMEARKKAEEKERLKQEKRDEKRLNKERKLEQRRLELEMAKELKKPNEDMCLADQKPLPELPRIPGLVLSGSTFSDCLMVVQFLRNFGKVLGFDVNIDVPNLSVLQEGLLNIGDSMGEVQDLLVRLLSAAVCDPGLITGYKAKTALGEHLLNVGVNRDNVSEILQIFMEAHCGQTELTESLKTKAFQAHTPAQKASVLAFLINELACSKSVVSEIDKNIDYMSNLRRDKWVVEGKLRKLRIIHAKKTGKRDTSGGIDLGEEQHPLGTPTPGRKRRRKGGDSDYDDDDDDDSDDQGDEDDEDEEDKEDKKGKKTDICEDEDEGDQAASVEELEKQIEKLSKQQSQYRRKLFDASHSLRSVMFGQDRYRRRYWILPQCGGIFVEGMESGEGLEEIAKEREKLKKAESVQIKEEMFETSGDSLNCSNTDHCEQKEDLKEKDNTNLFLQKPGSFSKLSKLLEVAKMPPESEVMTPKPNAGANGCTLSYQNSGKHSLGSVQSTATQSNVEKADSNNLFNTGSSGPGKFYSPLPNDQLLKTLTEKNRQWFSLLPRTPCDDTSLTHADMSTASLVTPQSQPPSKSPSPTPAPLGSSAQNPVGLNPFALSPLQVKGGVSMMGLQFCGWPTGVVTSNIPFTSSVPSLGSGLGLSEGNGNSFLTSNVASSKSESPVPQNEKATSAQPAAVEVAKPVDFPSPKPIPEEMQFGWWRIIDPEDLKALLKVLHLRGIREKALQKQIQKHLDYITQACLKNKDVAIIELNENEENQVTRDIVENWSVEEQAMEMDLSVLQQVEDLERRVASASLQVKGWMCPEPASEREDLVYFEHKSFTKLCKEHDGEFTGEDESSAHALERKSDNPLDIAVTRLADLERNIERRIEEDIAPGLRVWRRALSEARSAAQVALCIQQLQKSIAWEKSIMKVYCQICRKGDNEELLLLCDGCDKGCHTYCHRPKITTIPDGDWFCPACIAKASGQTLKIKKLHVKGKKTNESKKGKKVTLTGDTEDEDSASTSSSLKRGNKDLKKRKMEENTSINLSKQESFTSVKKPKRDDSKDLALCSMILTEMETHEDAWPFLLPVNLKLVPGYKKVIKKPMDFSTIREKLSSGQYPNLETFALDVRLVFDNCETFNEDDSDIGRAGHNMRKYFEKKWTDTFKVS
Experiment: qHTS Assay for Inhibitors of BAZ2B; also: nearly all actives have a fitted effect of over 60% in size
Conditions: AlphaScreen BAZ2B-H3K14Ac peptide displacement; series mostly up to 114 µM
Summary of the method: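 In this displacement format the biotinylated H3(5-23) peptide acetylated at Lys14 serves as ligand at 50 nM, with BAZ2B at 50 nM in PBS pH 7.4 containing 0.01% Tween-20. Donor and acceptor beads are 10 ug/mL final.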
Potency is read from the fitted curve at half-maximal effect; tags tell the direction and shape of the fitted curve.

| SMILES | Potency |
| --- | --- |
| CCOCCCNC(=O)c1ccc(OC2CCN(C(C)=O)CC2)c(OC)c1 | inactive |
| Cc1c(C#N)c(NC(=O)CCl)n(Cc2ccccc2)c1C | inconclusive: 79.4 µM [inhibitor, single point] |
| CCCn1c(CCNc2nc(-c3ccc(Cl)c([N+](=O)[O-])c3)cs2)nc2cc(Cl)c(Cl)cc21 | inconclusive: 79.4 µM [inhibitor, single point] |
| CCCCn1c(N)c(N(C)C(=O)C2CCCC2)c(=O)[nH]c1=O | inactive |
| Cc1cccc(NC(=O)CC(=O)Nc2cccc(C)c2)c1 | inactive |
| COc1ccc(CC(=O)Nc2nnc(SCC(=O)NCc3ccco3)s2)cc1OC | inconclusive: 89.1 µM [inhibitor, single point] |
| CCCS(=O)(=O)Nc1ccc(-c2cn3c(n2)SCC3)cc1 | inconclusive: 79.4 µM [inhibitor, single point] |
| CC(C)(C)c1ccc(C(=O)Nn2c(CCC(=O)O)ccc2-c2cccs2)cc1 | inconclusive: 89.1 µM [inhibitor, single point] |
| CC1CCC(N2CCN(S(C)(=O)=O)CC2)CC1 (stereo not drawn) | active: 31.6 µM |
| NC(=O)CC[C@H](NC(=O)OCc1ccccc1)C(=O)OCc1ccc(Cl)cc1 | inactive |
| O=C(Nc1ccc(C(=O)N2CCCc3ccccc32)cc1)c1cccs1 | inactive |
| CCOC(=O)c1ccc(/[N+]([O-])=C/c2ccccc2)cc1 | inconclusive: 44.7 µM [inhibitor, partial curve] |
| COc1ccc(-c2nc(-c3ccccc3)c(-c3cc([N+](=O)[O-])ccc3C)[nH]2)cc1O | active: 39.8 µM |
| CCc1ccccc1OC[C@@H](O)CN[C@H]1CCCc2ccccc21 | inconclusive: 56.2 µM [inhibitor, partial curve] |
| CN(C)/C=C1\C(=O)N(c2ccc([N+](=O)[O-])cc2)N=C1c1ccccc1 | inconclusive: 50.1 µM [inhibitor, partial curve] |
| COc1ccc(OCCNc2cc(N3CCCCC3)ccc2[N+](=O)[O-])cc1 | inconclusive: 3.16 µM [inhibitor, full curve] |
| Cc1ccc(Oc2ccc(NC(=O)CSc3n[nH]c(N)n3)cc2)cc1 | inactive |
| CCNCc1nc2cc(Cl)ccc2c(=O)[nH]1 | inactive |
| COC(=O)Cc1[nH]n(-c2nc3ccccc3s2)c(=O)c1C(C)=Nc1ccc(OC)cc1 | inconclusive: 89.1 µM [inhibitor, single point] |
| CN1CCN(Cc2c(O)ccc3c2oc(=O)c2ccccc23)CC1 | inconclusive: 89.1 µM [inhibitor, single point] |
| CCOc1cccc(CNc2ccc(O)cc2)c1OCc1ccc(Cl)cc1Cl | inconclusive: 50.1 µM [inhibitor, partial curve] |
| Cc1cc2cc(CNC(=O)C(C)Oc3ccccc3)ccc2n1C (stereo not drawn) | inconclusive: 56.2 µM [inhibitor, partial curve] |
| CCOc1ccc(NC(=O)CC2C(=O)OCCN2CC)cc1 (stereo not drawn) | inconclusive: 100 µM [inhibitor, single point] |
| O=C(C1=NN[C@@H]2C(=O)N(c3cccc(C(F)(F)F)c3)C(=O)[C@H]12)c1ccc2ccccc2n1 | inconclusive: 79.4 µM [inhibitor, single point] |
| COc1ccc(N2CCN(Cc3nc(-c4ccc(Cl)cc4Cl)no3)CC2)cc1 | active: 35.5 µM |

| SMILES | Potency |
| --- | --- |
| CN(Cc1ccon1)C(=O)CC1C(=O)NCCN1Cc1cccc(Oc2ccccc2)c1 (stereo not drawn) | inconclusive: 79.4 µM [inhibitor, single point] |
| CN1CCN(C2=Nc3ccccc3Oc3ccc(Cl)cc32)CC1 | inconclusive: 44.7 µM [inhibitor, partial curve] |
| N#CCCN(C(=O)CN1CCN(S(=O)(=O)c2ccc3c(c2)OCCO3)CC1)c1ccc(F)cc1 | inactive |
| COc1ccccc1C(=O)NCC(=O)NCc1cc(=O)n(C)c(=O)n1C | inactive |
| O=C1CCCCCN1C(=O)c1ccc(C(=O)N2CCCCCC2=O)cc1 | inactive |
| CCc1c(O)nc(SCC(=O)Nc2ccc(Br)cc2)n(-c2ccc(C)cc2)c1=O | inconclusive: 22.4 µM [inhibitor, full curve] |
| Cc1ccc(C)c(Nc2nc3c(S(=O)(=O)c4ccc(C(C)C)cc4)nnn3c3ccsc23)c1 | active: 79.4 µM |
| COc1ccc(N2CCN(CC(=O)c3ccc(O)c(C)c3O)CC2)cc1 | inconclusive: 50.1 µM [inhibitor, partial curve] |
| COC(=O)Nc1ccc(S(=O)(=O)N2CCCCC2C(=O)NCc2ccco2)cc1 (stereo not drawn) | inactive |
| Cc1ccc(S(=O)(=O)Nc2cccc(-c3cn4cccc(C)c4n3)c2)cc1 | inconclusive: 35.5 µM [inhibitor, full curve, poor fit] |
| COc1ccc(C(=O)NCCc2nnc3ccc(SCC(=O)N4CCCC4)nn23)cc1 | inactive |
| N#CC1=C(N)N=C(SCc2cccc3ccccc23)C(C(N)=O)C12CCCCC2 (stereo not drawn) | inconclusive: 50.1 µM [inhibitor, partial curve] |
| CCOC(=O)c1c(C)[nH]c(N=Nc2cc(C(=O)O)cc(C(=O)O)c2)c1C | inconclusive: 89.1 µM [inhibitor, single point] |
| CC1=C(C(=O)N2CCN(c3cccc(C(F)(F)F)c3)CC2)C2(CCCCC2)OC1=O | inactive |
| COC(=O)c1oc2ccccc2c1-n1cccc1 | inconclusive: 56.2 µM [inhibitor, single point] |
| COC(=O)c1c(Oc2ccc(C(C)=O)cc2)nnc(-c2ccccc2)c1-c1ccccc1 | inactive |
| Cn1c(-c2ccccc2O)cc2ccccc21 | inconclusive: 89.1 µM [inhibitor, single point] |
| Oc1ccc(CCC2CCCCN2Cc2nc(C3CC3)no2)cc1 (stereo not drawn) | inactive |
| CCOc1cc(C(C(=O)NCC2CCCO2)N(C(=O)Cn2nnc3ccccc32)c2ccc(OC)c(OC)c2)ccc1O (stereo not drawn) | inactive |
| CC1CCCC(C)N1C(=O)CSc1nc(N)c(-c2ccccc2)c(=O)[nH]1 (stereo not drawn) | inconclusive: 100 µM [inhibitor, single point] |
| COc1cccc2sc(N(CCN(C)C)C(=O)c3ccc4c(c3)CCCC4)nc12 | inconclusive: 44.7 µM [inhibitor, partial curve] |
| CCCCc1cc(=O)oc2cc(C)c(CN3CCCC3)c(O)c12 | active: 44.7 µM |
| CS(=O)(=O)N(CC(=O)N1CCN(Cc2ccc3c(c2)OCO3)CC1)Cc1ccc(Cl)cc1 | active: 56.2 µM |
| O=C(O)c1ccccc1C(=O)Nc1ccc(Oc2cccc3ccccc23)cc1 | active: 50.1 µM |
| Cc1nc2ccc([N+](=O)[O-])cc2c(=O)n1Cc1cccc(Br)c1 | inconclusive: 89.1 µM [inhibitor, single point] |

| SMILES | Potency |
| --- | --- |
| C/C(=N\Nc1cccc(C(=O)O)c1)c1ccc2c(c1)Nc1ccccc1S2 | active: 44.7 µM |
| COc1ccccc1NC(=O)Nc1nc(CC(=O)NCc2ccc(F)cc2)cs1 | inconclusive: 89.1 µM [inhibitor, single point] |
| CC(=Nc1ccccc1)C1=C(O)COC1=O | inconclusive: 31.6 µM [inhibitor, full curve, poor fit] |
| Cc1ccc(C(C)(C)C)c(OCCN2CCCC2)c1 | active: 50.1 µM |
| C=CCNC(=O)C1CC(=O)N(c2ccc(OCc3ccccc3Cl)cc2)C1 (stereo not drawn) | inactive |
| Cc1nc(N2CCOCC2)sc1C(=O)NN | inconclusive: 79.4 µM [inhibitor, single point] |
| COC(=O)c1cc2ccccc2c(-c2c(O)ccc3ccccc23)c1O | inconclusive: 44.7 µM [inhibitor, partial curve] |
| CCCCNc1c(-c2cccc(-c3cc(C(C)=O)cs3)c2)nc2ccc(C)cn12 | active: 35.5 µM |
| Cc1cc(C(=O)CSc2nc3ccc(Cl)cc3[nH]2)c(C)n1CC1CCCO1 (stereo not drawn) | inconclusive: 79.4 µM [inhibitor, single point] |
| CCN1C(=NCCOC)N[C@@H](c2ccccc2)[C@H](C(=O)OC)[C@H]1C | active: 50.1 µM |
| CCc1nc(N2CCN(C(=O)c3ccco3)CC2)c2oc3ccccc3c2n1 | inconclusive: 89.1 µM [inhibitor, single point] |
| Cc1ccc(Cl)c(OCC(=O)Nc2cccnc2)c1 | inconclusive: 100 µM [inhibitor, partial curve, poor fit] |
| O=C(O)c1c2c(nc3ccc(Cl)cc13)CCC2 | inconclusive: 50.1 µM [inhibitor, partial curve] |
| N#Cc1cccc(NC(=O)CC2CCCC2)c1 | inactive |
| CS(=O)(=O)N(CC(=O)NCCc1ccccc1)c1cc(C(F)(F)F)ccc1Cl | inactive |
| O=C(/C=C/c1ccco1)NCC(=O)N/N=C/c1ccc([N+](=O)[O-])cc1 | inconclusive: 56.2 µM [inhibitor, partial curve] |
| COc1cc(NC(=O)c2ccccc2)c(OC)cc1NC(=O)CN1CCCCC1 | inconclusive: 89.1 µM [inhibitor, single point] |
| S=C(c1ccc(-c2ccccc2)o1)N1CCCCC1 | active: 35.5 µM |
| COc1ccc(-c2cc(C)nc3c(-c4ccc(OC)c(OC)c4)c(C)nn23)cc1 | active: 20 µM |
| COc1ccc(N2CCN(C(=O)c3cc4ccc5cccnc5c4[nH]3)CC2)cc1 | inconclusive: 39.8 µM [inhibitor, partial curve] |
| CCN(CC)c1ccc(N=Cc2ccc([N+](=O)[O-])o2)cc1 | active: 10 µM |
| O=[N+]([O-])c1ccc(N2CCN(CCOc3nonc3-c3ccccc3)CC2)c(Cl)c1 | inconclusive: 89.1 µM [inhibitor, single point] |
| O=C(CCN1C(=O)c2ccccc2S1(=O)=O)Nc1ccc(Cl)cc1 | inactive |
